# Starred links: 1 amine or outer side, 2 acyl side, 3 side chain; linkers in the order of their positions; H or OH if unused. Positions of bridges follow the written chain, without caps; N, C: chain ends. Non-standard residues stand in square brackets, D forms with d. Residues, ends and D or L forms follow the SMILES beside them. *: point of attachment. X1 = CC[C@H](C)[C@@H](N[*:1])[C@@H](O)CC(=O)O[C@H](C(=O)[C@H](C)C(=O)[*:2])C(C)C; NMeY = CN[C@@H](Cc1ccc(O)cc1)C(=O)O; dNMeL = CN[C@H](CC(C)C)C(=O)O; Pyruvoyl = CC(=O)C(=O)*
# Experiment: Tissue distribution of total radioactivity after single IV bolus of [14C]plitidepsin
# Type: in vivo, Sprague–Dawley rats
# Details: rat, 0.2 mg/kg i.v. bolus
# Experimental: An in vivo distribution study was carried out in rats. PM140064 (14C1-Plitidepsin) was supplied by PharmaMar at a radiochemical purity of 95% or greater, with no single impurity 3% or greater. The study was conducted at Aptuit Srl ([54]).
# 24 male and 24 female Sprague–Dawley rats each received a single IV bolus administration of [14C] Plitidepsin at a target dose of 0.2 mg/kg. After administration, three animals per time-point (0.25, 1, 2, 4, 8, 24, 48, and 72 h post-dose) were exsanguinated from the abdominal aorta and blood retained. Actual times of bleeding were recorded. In addition to blood, the following tissues were collected: brain, eyeballs, heart, liver, lung, skeletal muscle (quadriceps), fat, kidneys, stomach, skin, small intestine, spleen, thyroid, lymph nodes, and testes or ovaries. At the end of the collection period animals were euthanized by CO2 asphyxiation and the carcasses were discarded. Additional animals were bled to obtain control blood/plasma and tissues.
structure (smiles),measurement,value
CC[C@H](C)[C@H]1NC(=O)[C@@H](NC(=O)[C@@H](CC(C)C)N(C)C(=O)[C@@H]2CCCN2C(=O)C(C)=O)[C@@H](C)OC(=O)[C@H](Cc2ccc(OC)cc2)N(C)C(=O)[C@@H]2CCCN2C(=O)[C@H](CC(C)C)NC(=O)[C@@H](C)C(=O)[C@H](C(C)C)OC(=O)C[C@@H]1O [Plitidepsin] (Pyruvoyl-P[dNMeL]T[X1]LP[NMeY](Me); ester 3-C),lung-to-plasma area under the curve ratio (LPR),~543 fold

# — PMC8761492 (Life Science Alliance, 2022)
